Hit rate of the full screen: of about 39,000 compounds, about 220 (0.56%) showed activity. This is one part of the list.
What follows are compounds tested on Escherichia coli K-12 BW25113 (assay: relative growth (OD600 normalised to plate interquartile mean) (fraction); higher = less growth inhibition, active = 0.2 or less). Conditions: 50 µM; LB; incubation time: overnight (16-24 h).
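Note: static incubation at 37 °C against the wild-type strain, values averaged over two biological replicates.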

Row | SMILES | relative growth
1 | COc1ccc(CN(C)C[C@H]2OCCCC[C@H](C)Oc3ccc(NC(=O)CCC(F)(F)F)cc3C(=O)N([C@H](C)CO)C[C@H]2C)cc1 | inactive: 1.02
2 | C[C@H]1CN([C@@H](C)CO)S(=O)(=O)c2ccc(C#CCN(C)C)cc2O[C@H]1CN(C)S(C)(=O)=O | inactive: 1.03
3 | C[C@H]1CCCCO[C@H](CN(C)C(=O)Nc2ccc3c(c2)OCO3)[C@@H](C)CN([C@@H](C)CO)C(=O)c2cc(NC(=O)NC3CCCCC3)ccc2O1 | inactive: 1.03
4 | C[C@H](CO)N1C[C@H](C)[C@H](CN(C)C(=O)Nc2ccccc2C(F)(F)F)OCc2ccccc2-c2ccccc2C1=O | inactive: 0.987
5 | O=C(O)c1ccc(O)c(C(=O)O)c1 | inactive: 0.997
6 | COc1ccc(S(=O)(=O)N(C)C[C@@H]2Oc3ccc(NC(=O)Cc4ccccc4)cc3C(=O)N([C@H](C)CO)C[C@H]2C)cc1 | inactive: 0.987
7 | COc1ccccc1S(=O)(=O)N[C@H]1C=C[C@H](CC(=O)N2CCOCC2)O[C@H]1CO | inactive: 0.998
8 | O=C(C[C@@H]1CC[C@@H]2[C@H](COC[C@H](O)CN2S(=O)(=O)c2ccccc2)O1)NCCN1CCCC1 | inactive: 0.982
9 | C[C@@H]1CN([C@@H](C)CO)C(=O)c2cc(NS(=O)(=O)c3cn(C)cn3)ccc2O[C@H]1CN(C)Cc1ccncc1 | inactive: 0.981
10 | C[C@@H]1CCCCO[C@@H](CN(C)CC2CCCCC2)[C@H](C)CN([C@H](C)CO)C(=O)c2cc(NC(=O)c3ccccc3)ccc2O1 | inactive: 0.99
11 | COc1ccc(NC(=O)N(C)C[C@H]2Oc3c(NS(C)(=O)=O)cccc3C(=O)N([C@@H](C)CO)C[C@@H]2C)cc1 | inactive: 0.981
12 | C[C@@H](O)[C@@H](O)[C@H]1CNc2[nH]c(N)nc(=O)c2N1 | inactive: 0.977
13 | COc1ccc(NC(=O)Nc2cccc3c2O[C@H](CN(C)Cc2ccc(Cl)c(Cl)c2)[C@@H](C)CN([C@H](C)CO)C3=O)cc1 | inactive: 1
14 | COc1ccc(NC(=O)Nc2cccc3c2O[C@H](CN(C)Cc2ccc(-c4ccccc4)cc2)[C@@H](C)CN([C@@H](C)CO)C3=O)cc1 | inactive: 1.03
15 | CCC[C@@H](O)C#Cc1cnc2c(c1)C(=O)N([C@H](C)CO)C[C@H](C)[C@H](CN(C)S(=O)(=O)c1ccccc1)O2 | inactive: 0.996
16 | COc1ccccc1NC(=O)N(C)C[C@@H]1Oc2ncc(C#CC(C)C)cc2C(=O)N([C@@H](C)CO)C[C@@H]1C | inactive: 0.993
17 | CC(C)N1C[C@H](C)[C@@H](CN(C)Cc2ccc(Oc3ccccc3)cc2)Oc2c(cccc2-c2cn(-c3ccncc3)nn2)C1=O | inactive: 1.02
18 | C[C@@H]1CN([C@H](C)CO)C(=O)c2cc(N(C)C)ccc2O[C@@H](C)CCCCO[C@@H]1CN(C)CC1CCCCC1 | inactive: 0.988
19 | N#Cc1cc(F)cc(Oc2ccc(S(=O)(=O)C(F)F)c3c2CC(F)(F)[C@@H]3O)c1.N#Cc1cc(F)cc(Oc2ccc(S(=O)(=O)C(F)F)c3c2CC(F)(F)[C@H]3O)c1 | inactive: 1

Row | SMILES | relative growth
20 | CO[C@@H]1CN(C)C(=O)c2ccc(NC(=O)c3cc(C)on3)cc2OC[C@@H](C)N(C(=O)C2CCC2)C[C@H]1C | inactive: 0.987
21 | C[C@H](CO)N1C[C@H](C)[C@@H](CN(C)S(=O)(=O)c2cn(C)cn2)Oc2ccc(N(C)C)cc2CC1=O | inactive: 1.01
22 | CC(C)N1C[C@@H](C)[C@H](CN(C)Cc2ccc(Oc3ccccc3)cc2)Oc2c(cccc2N(C)C(=O)c2ccncc2)C1=O | inactive: 1.01
23 | COc1nc2ccc(Br)cc2cc1[C@@H](c1ccccc1)[C@@](O)(CCN(C)C)c1cccc2ccccc12 | inactive: 1.01
24 | C[C@@H]1CCCCO[C@@H](CN(C)S(=O)(=O)c2ccc(Cl)cc2)[C@@H](C)CN([C@@H](C)CO)C(=O)c2cc(NS(=O)(=O)c3ccc(F)cc3)ccc2O1 | inactive: 1.02
25 | C[C@@H]1CN([C@H](C)CO)C(=O)c2cccc(NC(=O)Nc3cccc4ccccc34)c2O[C@@H]1CN(C)Cc1ccc(C(F)(F)F)cc1 | inactive: 1.03
26 | CC(C)(O)C#Cc1ccc([C@H]2[C@H]3CN(S(C)(=O)=O)CCCCN3[C@H]2CO)cc1 | inactive: 0.996
27 | C[C@@H]1CN([C@@H](C)CO)C(=O)c2cc(NC(=O)Nc3ccccc3)ccc2O[C@@H](C)CCCCO[C@H]1CN(C)Cc1ccc2c(c1)OCO2 | inactive: 0.987
28 | COc1ccc(NC(=O)N(C)C[C@@H]2OCc3cnnn3CCCC(=O)N([C@@H](C)CO)C[C@@H]2C)c(OC)c1 | inactive: 0.933
29 | C[C@H]1CCCCO[C@H](CN(C)C(=O)c2ccccc2)[C@@H](C)CN([C@@H](C)CO)C(=O)c2cc(NC(=O)CCC(F)(F)F)ccc2O1 | inactive: 1.01
30 | C[C@H]1CN([C@@H](C)CO)C(=O)c2c(c3ccccc3n2C)-c2ccccc2CO[C@H]1CN(C)C(=O)Nc1cccc(F)c1 | inactive: 1.01
31 | CCCC(=O)Nc1ccc2c(c1)C(=O)N(C)C[C@@H](OC)[C@@H](C)CN(S(=O)(=O)c1cn(C)cn1)[C@H](C)CO2 | inactive: 0.992
32 | CN1C(=O)c2cc(NC(=O)C3CCCC3)ccc2OC[C@@H]2O[C@H](CC(=O)NCCc3ccncc3)CC[C@H]21 | inactive: 1.02
33 | C[C@@H]1CN([C@H](C)CO)C(=O)Cc2cc(NC(=O)Nc3cccc4ccccc34)ccc2O[C@@H]1CN(C)C(=O)Nc1ccc2c(c1)OCO2 | inactive: 0.987
34 | C[C@@H]1CN([C@@H](C)CO)C(=O)c2cc(NC(=O)CCCN(C)C)ccc2O[C@@H](C)CCCCO[C@@H]1CN(C)C | inactive: 0.991
35 | C[C@@H]1CN([C@@H](C)CO)C(=O)c2cc(-c3cccc(C#N)c3)cnc2O[C@@H]1CN(C)C(=O)c1cnccn1 | inactive: 0.997
36 | Cc1[nH]c2ncnn2c(=O)c1CCC(=O)O | inactive: 1.01
37 | C[C@@H]1CN([C@@H](C)CO)C(=O)Cc2cc(NS(C)(=O)=O)ccc2O[C@H]1CN(C)C(=O)Nc1ccc(F)cc1 | inactive: 0.97
38 | Cc1cc(O)c2c(c1)C(=O)c1c(c(O)cc(O)c1-c1c(O)cc(O)c3c1C(=O)c1cc(C)cc(O)c1C3=O)C2=O | inactive: 1.03
